Results from the supplement of paper PMC11417369.
The list shows a part of the results.

tested on: PfHDP1 homeodomain (GST-tagged); experiment: gcPBM binding intensity (ln(normalized median fluorescence intensity)); higher = stronger DNA binding
How it was run: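 After 1 h on an Agilent 4 × 180k array of primer-extended double-stranded 36-bp intergenic genomic probes and negative controls, bound GST-tagged P. falciparum DNA-binding domains were detected with Alexa488 anti-GST antibody and scanned at 488 nm. The domains had been expressed in E. coli, and binding took place in 1× PBS with 1% milk, 0.2 mg/ml BSA, 0.5% salmon testes DNA and 0.03% Triton X-100. Binding intensity is the highest Masliner-normalised natural-log median intensity across replicate spots of either probe orientation.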

Sequence	gcPBM binding intensity (ln)
AAATATATATAAAAGTGTACATTTGTTATAATCAGT [XGTACX_site4822]	6.71
CCAACTAAAAAGGAATGTACATAGTTATGGTTGGAA [XGTACX_site8762]	6.98
TATATATATATATATATATATATATATATATGTTGT [TGCATGCA_negctrl_site24]	9.44
ACTTTAAACAAAAAAAGTACTCTTTAATGAATATAT [XGTACX_site7176]	6.21
CAATATTTTATTTAAGCATGCTCTAGGGTGTAAAAG [TGCATGCA_site1001]	9.53
CAATTTCTCTTAATTTGTACATATATGTTATACAAA [XGTACX_site3231]	6.73
ACATCAAGCAGACACACACACACACGCACACGCACA [CACACA_site6309]	7.36
ACTATTCATGCATATACACACACATATATATATATT [CACACA_site9309]	7.89
TAGATTTTTTAATGTTGTACAAATATACGATATATA [XGTACX_site3258]	6.74
TTGTTTCTCTTTAAAAGTACAAAAATGGTTACATAT [XGTACX_site3109]	6.5
TTTTTAATTTCAATGGTGCAGTAATAATATAATAGT	8.97
CATTTAAGACAAATTACACACGTATGCCAAATATAT [CACACA_site431]	6.76
ATATTTTTTTTTGTTAGTACTCATATTTGTAGTTTT [XGTACX_site7280]	7.01
AATATATATAATTATAGTACAGAAAATTAAAAAAGA [XGTACX_site2943]	6.99
TCTTTAAATTTCTCAACACACAGTTATAAAAAATAA [CACACA_site2856]	6.18
AACAATAAAAATAATTGTACAAGTTTAAAAAAAATT [XGTACX_site1987]	6.58
TATATCTTATTTAACACACACAAAGAAAATAGAAAA [CACACA_site3732]	6.81
TATAAATATATTTATACACACATTAGTGTATACATG [CACACA_site7397]	6.92
AGGTGAAAAATATATAATAATGTAACAAAAAAAAAT [XGTACX_negctrl_site394]	7.08
AACTATAACTAAAAAAATCACATAAAATATTTTATT [TGCATGCA_negctrl_site363]	6.07
TCGTGTTAAATTTTTACACACAAACTTGCAATAATT [CACACA_site3824]	7.46
TATATATATTAGTGTGCACACTTTTTATTTTTATCC [CACACA_site8506]	10.5
ATATATTTATAATAGGTGCATATGTTTTATTTTTCC [GTGCAC_site9849]	10
TGTTCTATTCTATTATTATTTACAAATTATAAATAA [GTGCAC_negctrl_site232]	6.57
